How the values were obtained:
TNF-alpha = TNF-alpha plasma level by ELISA in PbA-infected mice; format: in vivo; conditions: C57Bl/6 mice, 25 mg/kg sc on Day 4 and Day 6, day 6 post-infection (FIG. 19a)
Experimental: (§1) Peripheral whole blood was collected by saphenous venipuncture on day 0 (d 0; prior to PbA infection) and d 6 p.i. into heparinized tubes (Starstedt). Plasma was isolated from whole blood samples by centrifugation at 1000×g for 15 min. Plasma samples were aliquoted and stored at −80° C. until analyzed. Levels of mouse intercellular adhesion molecule-1 (sICAM-1/CD54), E-Selectin (sE-Sel/CD62E) and Vascular Cell Adhesion Molecule-1 (sVCAM-1/CD106) in their soluble forms were determined in plasma using commercially available murine ELISA kits (R&D Systems, Minneapolis, USA), according to the manufacturers protocol. Levels of von Willebrand Factor antigen (vWF:Ag) was measured in serum by ELISA as follows: 96-well MaxiSorp plates (Nunc) were coated overnight at 4° C. with a polyclonal antibody anti-human vWF (1:600, Dako, Glostrup, Denmark) in 0.01M PBS. Mouse serum was plated in 1% BSA-PBS and bound vWF:Ag was detected with horseradish peroxidase (HRP)-conjugated polyclonal antibody anti-human vWF (1:8000, Dako). […] IFN-gamma and TNF-alpha were determined in plasma using commercially available murine ELISA kits (eBioscience), according to the manufacturer's protocol.

sICAM-1/CD54 = experiment: Soluble ICAM-1 plasma level by ELISA in PbA-infected mice; format: in vivo; conditions: C57Bl/6 mice, day 6 post-infection, p<0.05 (FIG. 19c)
Experimental: as §1

[1] = tested on: Plasmodium berghei ANKA (PbA)-induced experimental cerebral malaria; experiment: Neurological impairment by Rapid Murine Coma and Behavioral Score (RMCBS); format: in vivo; conditions: C57Bl/6 mice, 25 mg/kg sc on Day 4 and Day 6 (Example 3, FIG. 17)
Experimental: (§2) Post-infection survival of mice was plotted as Kaplan Meier curves using a log rank test for comparison. Quantitative assessment of ECM-associated neurological impairment (impaired coordination and motor performance) was performed daily using the 10 parameter Rapid Murine Coma and Behavioral Score (RMCBS), as previously described by Carroll R W, et al. 2010 in PLoS ONE 5: e13124. Signs of ECM include impaired balance/coordination, motor impairment (ataxia, hemiplegia/paraplegia), loss of reflexes and self-preservation, lack of hygiene-related behavior (grooming) and/or fitting. For each parameter, a score was assigned from 0 to 2, with 0 indicating the lowest function and a score of 2 the highest. Total scores for each mouse were calculated and provided as a percentage of the total possible score. Mice with a score of 35% or less were deemed to have severe ECM.

[2] = tested on: Plasmodium berghei ANKA (PbA); experiment: Vascular permeability in lung by Evans Blue staining (malaria-associated acute lung injury); format: in vivo; conditions: C57Bl/6 mice, 15 mg/kg sc on Days 4 and 6, expected result (Example 5)
Experimental: In this Example, the effect of AngF1-Fc-F1 administration on vascular permeability in lung and malaria-associated acute lung injury in infected mice will be studied. Twenty C57Bl/6 mice will be infected with Plasmodium berghei ANKA (PbA) via an intraperitoneal injection of 1×10^6 freshly-isolated parasitized erythrocytes (PE) obtained from donor passage mice on Day 0. The infected mice will be treated with 15 mg/kg of AngF1-Fc-F1 (SEQ ID NO: 2) on Days 4, and 6 post-infection via subcutaneous injection. The mice will be monitored for survival and vascular permeability in lung by Evans Blue staining.

sVCAM-1/CD106 = experiment: Soluble VCAM-1 plasma level by ELISA in PbA-infected mice; format: in vivo; conditions: C57Bl/6 mice, day 6 post-infection, p<0.05 (FIG. 19c)
Experimental: as §1

[3] = tested on: Plasmodium berghei ANKA (PbA)-induced experimental cerebral malaria; experiment: Survival of mice infected with PbA (Kaplan Meier, log rank test); format: in vivo
Source text: Cryopreserved Plasmodium berghei ANKA (PbA; MR4, Manassas, Va.) was passaged through naïve C57Bl/6 mice. For the experiment, infection was initiated in C57Bl/6 and BALB/c mice by intraperitoneal (ip) injection of 1×10^6 freshly-isolated parasitized erythrocytes (PE) obtained from donor passage mice. Parasitemia was monitored by thin-blood smear stained with modified Geimsa stain (Protocol Hema3 Stain Set, Sigma, Oakville, ON) by counting at least 1500 erythrocytes. The infected mice were monitored for survival, neurological impairment, vascular leakage, parasite burden, and levels of angiogenic factors and markers of endothelial activation.
as §2
Statistical analysis was performed using GraphPad Prism version 4.00 (San Diego, Calif.). Post-infection survival of mice was plotted as Kaplan Meier curves and assessed using log-rank test. Survival studies were conducted in triplicate and data pooled unless otherwise specified. Shapiro-Wilk test was used to determine normally distributed data and comparisons between groups were assessed using the non-parametric Mann-Whitney test or Kruskal-Wallis test followed by Dunn's post-hoc. Two-way ANOVA was used to compare between groups over multiple time-points. […]

[4] = tested on: Plasmodium berghei ANKA (PbA)-induced experimental cerebral malaria; experiment: Evans Blue permeability assay in brain (blood brain barrier integrity); format: in vivo, mice
Experimental: Vascular permeability in the brain was assessed using Evans blue (EB) dye. Mice were intravenously injected via tail vein with 0.1 mL of 1% Evans blue dye solution (Evans Blue powder; Sigma-Aldrich in PBS, filter sterilized) when clinical signs of ECM were observed. Mice were euthanized with isoflurane (99.9% inhalational anesthetic) after 1 hour, perfused with 50 mL of PBS (1×). Brains were dissected aseptically, weighed, photographed and placed in 1 mL N, N-dimethylformamide for 48 hours at room temperature to extract dye from tissue. Absorbance was measured at 620 nm. The concentration was calculated using a standard curve of EB dye and expressed as ng dye per gram of brain tissue.

IFN-gamma = IFN-gamma plasma level by ELISA in PbA-infected mice; format: in vivo; conditions: C57Bl/6 mice, 25 mg/kg sc on Day 4 and Day 6, day 6 post-infection (FIG. 19a)
Experimental: as §1

[5] = resistant BALB/c mice, expected result of a further experiment

B1: AngF1-Fc-F1: modified angiopoietin: fibrinogen-like domain of angiopoietin fused to Fc fragment fused to a second fibrinogen-like domain, SEQ ID NO: 2 (protein)
chain: FRDCADVYQAGFNKSGIYTIYINNMPEPKKVFCNMDVNGGGWTVIQHREDGSLDFQRGWKEYKMGFGNPSGEYWLGNEFIFAITSQRQYMLRIELMDWEGNRAYSQYDRFHIGNEKQNYRLYLKGHTGTAGKQSSLILHGADFSTKDADNDNCMCKCALMLTGGWWFDACGPSNLNGMFYTAGQNHGKLNGIKWHYFKGPSYSLRSTTMMIRPLDF[skipping human IgG1 Fc]RDCADVYQAGFNKSGIYTIYINNMPEPKKVFCNMDVNGGGWTVIQHREDGSLDFQRGWKEYKMGFGNPSGEYWLGNEFIFAITSQRQYMLRIELMDWEGNRAYSQYDRFHIGNEKQNYRLYLKGHTGTAGKQSSLILHGADFSTKDADNDNCMCKCALMLTGGWWFDACGPSNLNGMFYTAGQNHGKLNGIKWHYFKGPSYSLRSTTMMIRPLDF
- plasma level of TNF vs control (TNF-alpha): did not affect
- circulating levels of sICAM-1 compared to PbA-infected controls (sICAM-1/CD54): significantly reduced
- ECM-associated morbidity and neurological impairment (RMCBS) [1]: prevented ECM-associated morbidity and neurological impairment
- Evans Blue dye uptake in lungs (vascular permeability, acute lung injury) [2]: absence of Evans Blue dye uptake in lungs
- circulating levels of sVCAM-1 compared to PbA-infected controls (sVCAM-1/CD106): significantly reduced
- survival up to at least Day 15 p.i. ([3]; C57Bl/6 mice, 25 mg/kg sc on Day 4 and Day 6 post infection (Example 3)): more than 35%
- survival compared to isotype control, anti-Ang2 antibody or dual blocking antibody ([3]; C57Bl/6 mice, 25 mg/kg sc on Day 4 and Day 6 post infection, p<0.05, log rank test (Example 3, FIG. 14)): significantly improved survival
- survival of infected BALB/c mice [3, 5]: improved protection
- Evans Blue dye uptake in brain (blood brain barrier integrity) ([4]; C57Bl/6 mice, 25 mg/kg sc on Day 4 and Day 6, p<0.05, Kruskal-Wallis (Example 3, FIG. 16a)): significantly low amount of dye uptake
- protection of blood brain barrier integrity [4, 5]: improved protection
- plasma level of IFNγ vs control (IFN-gamma): did not affect

Source: patent US10525106B2, “Angiopoietin-based interventions for treating cerebral malaria” (Regeneron Pharmaceuticals, Inc., priority 2013, dated 2020)
